Laboratory results published in the RNAGym collection of RNA variant scans (doi:10.1093/nar/gkz1192).
The source gives no read counts; variants with many changes may rest on few reads.

B1: CPEB3 Ribozyme (parent)
chain: UAACAGGGGGCCACAGCAGAAGCGUUCACGUCGCAGCCCCUGUCAGAUUCUGGUGAAUCUGCGAAUUCUGCUGUAUAUCUC

Variants of: B1
Assay: self-cleavage, relative activity (ratio to wild type); higher = more cleavage; in vitro, sequencing
Method in brief: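 Barcoded CPEB3 ribozyme mutants, produced by rounds of error-prone PCR, self-cleaved while being transcribed with T7 RNA polymerase for 5 hours at 37°C and during a subsequent 15 min DNase I step before EDTA was added. Sequencing of template-switched cDNA on Illumina gave cleaved and total reads, and DNA sequencing assigned barcodes to variants. Each variant's relative activity is its cleaved/total read fraction divided by the unmutated ribozyme's fraction, averaged across three batches. A variant needed a minimum of 5 reads.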

Variant	self-cleavage
G9C U41C A64G U78A	0.25
G9C U41C U69A	0.24
G9U A13G A15G U49C U72C	0.3
G9U A13G U49A A75G	0.05
G9U A13G U66C	0.13
G9U A13U A15G A21G A35G A45U U66C	0.05
G9U A15G A18U C38A	0.06
G9U A15G A28G U80A	0.39
G9U A15G A35U U49C A64G G73A A75U	0.03
G9U A15G A57G U72C	0.19
G9U A15U A45C U66C U78C	0.15
G9U A15U U25C U31C U51C A56U	0.07
G9U A18G A35G U80C	0.31
G9U A18G G33U C50G G61A	0.04
G9U A18G U48C U49G U51A U60G U66C	0.02
G9U A18U U25A U43C	0.3
G9U A18U U25C A64U	0.04
G9U A18U U25C C68A	0.11
G9U A20C U25A G36C A65G U69C U78C	0.03
G9U A20G A28G A65G U66C	0.04
G9U A20G A28G U49C U54A U60C	0.05
G9U A20G A35U U69C	0.05
G9U A20G C50U U60C U69G U72C U74C	0.04
G9U A20G G33C	0.09

Variant	self-cleavage
G9U A20G U25G A47G U49C	0.04
G9U A20G U26C U51C U67C	0.12
G9U A20G U31C U74C	0.28
G9U A20U A35G	0.05
G9U A20U A47G	0.05
G9U A21C G30U U43C U51A	0.1
G9U A21G A28G	0.27
G9U A21G A28G A57G	0.04
G9U A21G A35U U51G U66A A75C	0.03
G9U A21G A47G G53A U60C	0.05
G9U A21G C23U A47G U48A U60C	0.06
G9U A21G G30A U41C A65U U72G	0.03
G9U A21G G70A	0.2
G9U A21G U31C A47G A57G U72A	0.02
G9U A21G U48C C59A A65G	0.1
G9U A21G U49C U51C U54C A65U U78C	0.07
G9U A21U C38U U54C G73A U80C	0.22
G9U A21U G22U A45C C59U	0.15
G9U A28C U43G U78C	0.03
G9U A28G A45G U69A	0.06
G9U A28G G42A A57G U69A	0.1
G9U A28G U41C U54C G63A A65U	0.11
G9U A28G U49G	0.05
G9U A28G U51A C59A	0.05

Variant	self-cleavage
G9U A28G U67C	0.12
G9U A28U A45U	0.12
G9U A28U U43A A47G U51G G53A U76C	0.09
G9U A28U U48C U54C A75G A77G	0.05
G9U A28U U49C	0.12
G9U A35C G36A U80C	0.14
G9U A35G A45G U74A	0.17
G9U A35G A65G U66A	0.15
G9U A35G U72A	0.23
G9U A35G U72A A77G	0.11
G9U A35U A57G U69C	0.05
G9U A45G A56U A77G	0.22
G9U A45G U67C U78C	0.14
G9U A45G U69A	0.09
G9U A47G C62A U76C	0.09
G9U A57G U69G	0.12
G9U A64G A65U A75U	0.05
G9U C11A U60C	0.06
G9U C11U A20G U31A G52A A56G	0.03
G9U C11U A28U U51A U69C	0.13
G9U C12A U26C C40A	0.05
G9U C12A U58C	0.06
G9U C12U A15G A35G	0.28
G9U C14U C17U A28G U41G	0.03

Variant	self-cleavage
G9U C14U U25C C32G U41A U74C	0.06
G9U C17U U31C U48C U51A	0.03
G9U C23U A28U U48A U78C	0.12
G9U C27U U31C G36C U58C C71G U80C	0.04
G9U C34G A45C C68A U78C	0.05
G9U C34U A45U	0.11
G9U C39U A56G U69G	0.06
G9U C39U U58A U60C	0.04
G9U C40U A47G	0.15
G9U C44G U67C U76C	0.15
G9U G10A C12A A20U A56G	0.04
G9U G16A A28G U72C U78C	0.14
G9U G16A C27U	0.05
G9U G19A U31A U69C U72C	0.12
G9U G22A G46A A57G	0.27
G9U G22C U25C A56G A65G G73A A75G	0.05
G9U G22C U66C	0.14
G9U G24A C37G U41A G42C U74C	0.03
G9U G30A A64G	0.05
G9U G33U U54A A56G U72C	0.05
G9U G46A A56G	0.15
G9U G52A U54C	0.06
G9U G53A U54C U58C U60C A64G U69A	0.08
G9U G53C A64G	0.37

Variant	self-cleavage
G9U G53C U66A U80G	0.12
G9U U25A U60C U69G U72C	0.15
G9U U25A U60C U78C U80A	0.11
G9U U25C A28U U66A	0.05
G9U U25C A45G U54C U72C	0.23
G9U U25C A45G U72A U80C	0.42
G9U U25C A65G U72C	0.17
G9U U25C C44U U49A U80A	0.07
G9U U25C C71G	0.09
G9U U25C U31C	0.39
G9U U25C U31G U41A U58C U80C	0.04
G9U U25C U41A	0.14
G9U U25G A28U U78C	0.17
G9U U26A A65G	0.05
G9U U26C A77G	0.14
G9U U31A A45U U60C	0.18
G9U U31A U43C	0.11
G9U U31A U43C G52A A57G A65G U72C	0.04
G9U U31A U51A U54C	0.05
G9U U31C A45G U51C A65G U69C U74C	0.03
G9U U31C A64G U66C U78C	0.08
G9U U31C A75U	0.05
G9U U31C U48C U60C U67C	0.12
G9U U41A A77U	0.16

Variant	self-cleavage
G9U U41A U54C	0.1
G9U U41C G53A	0.16
G9U U43A U54C U72G	0.06
G9U U43A U78C	0.05
G9U U48C A64G	0.06
G9U U49A G61A	0.19
G9U U51C A57G	0.27
G9U U51C U67C	0.14
G9U U51G U67C	0.13
G9U U54C C71U	0.36
G9U U54G U67C	0.06
G9U U58C U72C	0.06
G9U U60C A64U U72C A77C	0.05
G9U U60C U66C	0.11
G9U U69C U72C U80C	0.02
G9U U72C A77C	0.07
G10A A13C U25C	0.4
G10A A13G A18G A35G U43A	0.07
G10A A13G A18G A45G U60C	0.08
G10A A13G A21G C27A U48A A75G	0.02
G10A A13G A21U A65G	0.13
G10A A13G A35G U41A U74A U80A	0.42
G10A A13G A45G U67C U69A	0.22
G10A A13G C50A A57G U58A	0.22

Variant	self-cleavage
G10A A13G U25C U26C G42A A77U	0.05
G10A A13G U26A U31C U54G	0.07
G10A A13G U41C G70A	0.32
G10A A13G U43C U58A	0.05
G10A A13G U66C A75G	0.06
G10A A13U A21G C59A U76C	0.04
G10A A13U A45U C79U	0.3
G10A A13U U31C U76G	0.24
G10A A13U U43C	0.25
G10A A13U U43C G63U A64G	0
G10A A15G A18U U26C U49G	0.05
G10A A15G A20G U67C U74C	0.04
G10A A15G A21G	0.08
G10A A15G A28G A45G G46A	0.2
G10A A15G A56G U58C	0.07
G10A A15G A57U U74C U80A	0.27
G10A A15G C44G U66A U80A	0.01
G10A A15G G24A U80A	0.04
G10A A15G G30A U48C	0.17
G10A A15G U26A U54A U58C U60C	0.07
G10A A15G U31G A64U	0.05
G10A A15G U41A G52C G73A U80C	0.05
G10A A15G U49C U74A	0.19
